# Source: PubChem BioAssay AID720709 (National Center for Advancing Translational Sciences (NCATS), 2013)
# About 520 (0.14%) of roughly 360,000 compounds were called active. The shares of active, inactive and inconclusive entries below differ from those in the screen. The call rests on the fitted dose curve; in most records, active means well fitted inhibition curve with a large enough effect; inconclusive means small, poorly fitted or top-dose-only effect; inactive means no such curve, though single readings can be large or run the other way. Potencies of inconclusive entries are left out as doubtful fits.
# Biological target: Rap guanine nucleotide exchange factor 3 (Homo sapiens) (UniProt O95398)
# Assay: qHTS for Antagonist of cAMP-regulated guanine nucleotide exchange factor 3 (EPAC1): primary screen; further: nearly all actives have a fitted effect of over 50% in size;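 on activity change, negative = inhibition: plate controls were vehicle for no effect and positive control for full effect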
# Conditions: EPAC1 GEF assay, Rap1b-BODIPY-GDP exchange fluorescence; activity change, negative = inhibition: at 115 µM (top of the series)
# Potency means the concentration at half of the fitted maximal effect; tags describe the fitted curve by direction and shape.
# Chain of UniProt O95398 (O95398 whole entry, looked up): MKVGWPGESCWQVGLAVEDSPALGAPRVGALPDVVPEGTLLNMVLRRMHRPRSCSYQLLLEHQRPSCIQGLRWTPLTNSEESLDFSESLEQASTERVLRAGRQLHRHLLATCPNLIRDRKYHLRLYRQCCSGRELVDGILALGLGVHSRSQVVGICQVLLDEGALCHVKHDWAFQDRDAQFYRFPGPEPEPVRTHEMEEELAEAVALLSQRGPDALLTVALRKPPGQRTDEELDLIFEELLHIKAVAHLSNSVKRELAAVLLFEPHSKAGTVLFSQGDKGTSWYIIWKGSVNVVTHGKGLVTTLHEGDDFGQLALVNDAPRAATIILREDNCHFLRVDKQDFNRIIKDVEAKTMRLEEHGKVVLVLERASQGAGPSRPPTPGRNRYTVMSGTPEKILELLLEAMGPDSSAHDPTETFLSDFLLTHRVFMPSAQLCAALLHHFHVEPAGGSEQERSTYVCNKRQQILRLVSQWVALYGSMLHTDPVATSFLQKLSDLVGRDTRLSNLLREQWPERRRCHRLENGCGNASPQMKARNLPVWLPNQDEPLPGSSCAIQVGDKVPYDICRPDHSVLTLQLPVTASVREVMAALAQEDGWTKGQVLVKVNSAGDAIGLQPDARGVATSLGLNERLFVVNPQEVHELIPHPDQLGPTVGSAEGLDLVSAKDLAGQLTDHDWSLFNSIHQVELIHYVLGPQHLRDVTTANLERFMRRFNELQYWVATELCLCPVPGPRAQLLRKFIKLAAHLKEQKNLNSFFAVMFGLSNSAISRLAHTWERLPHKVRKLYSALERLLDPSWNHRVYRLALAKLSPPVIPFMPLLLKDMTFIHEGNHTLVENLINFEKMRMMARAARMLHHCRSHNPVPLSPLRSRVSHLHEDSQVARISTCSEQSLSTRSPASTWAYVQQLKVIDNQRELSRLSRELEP
SMILES,"activity change, negative = inhibition",Potency
CCCCCCCCCCCCCCCC(=O)OC(CC(=O)O)C[N+](C)(C)C (configuration not stated),inactive: -7.47%,–
CCOC(=O)c1c(NC(=O)C2CCCCC2)sc2c1CCN(C(C)C)C2,–,"inconclusive [inhibitor, single point]"
O=C(C[C@@H]1CC[C@@H]2[C@H](COC[C@H](O)CN2Cc2cccc(C(F)(F)F)c2)O1)NCc1ccc(Cl)cc1,inactive: -3.32%,–
CCN1CCc2c(sc(NC(=O)c3cc4ccccc4cc3OC)c2C(N)=O)C1,–,"inconclusive [inhibitor, single point]"
CN(CC(=O)NNC(=O)CNC(=O)c1ccccc1F)S(=O)(=O)c1ccc(Cl)cc1,–,"inconclusive [inhibitor, partial curve]"
CC(C)c1ccc(NC(=O)Nc2nc(C(N)COCc3ccccc3)cs2)cc1 (configuration not stated),–,"inconclusive [inhibitor, single point]"
COc1ccc2c(c1)CCC/C2=N/OC(=O)c1ccccc1OC,–,"inconclusive [inhibitor, full curve]"
Cc1cc(NC(=O)CSc2nc(-c3ccccc3)nc3c2c(=O)n(C)c(=O)n3C)no1,–,"inconclusive [inhibitor, single point]"
Cc1noc(C)c1COc1ccc(C(=O)N2CCN(c3ccccc3O)CC2)cc1,inactive: 5.45%,–
COc1cccc(NS(=O)(=O)c2ccc3c(c2)CCN3C(C)=O)c1,inactive: -22.7%,–
O=C(CCl)N(Cc1cccc([N+](=O)[O-])c1)c1cccc(Cl)c1,–,"inconclusive [inhibitor, partial curve]"
O=C(O)c1ccc(COc2c(F)c(F)cc(F)c2F)cc1,–,"inconclusive [inhibitor, partial curve]"
CCCCNc1ccc2c3c(cccc13)C(=O)N(CCCC)C2=O,inactive: 250%,–
COc1ccc(N(C(=O)c2ccc(Br)o2)C2C=CS(=O)(=O)C2)c(OC)c1 (configuration not stated),–,"inconclusive [inhibitor, full curve, poor fit]"
COC(=O)c1cc(NS(=O)(=O)c2ccc(C)c3ccccc23)ccc1N1CCOCC1,–,"inconclusive [inhibitor, partial curve, poor fit]"
Cc1ccccc1OCc1n(CC(=O)OC2CC(C)CCC2C(C)C)c2ccccc2[n+]1C (configuration not stated),–,"inconclusive [inhibitor, full curve, poor fit]"
Cc1ccc(C)c(S(=O)(=O)N2CCN(C(=O)c3cccnc3)CC2)c1,inactive: -23.2%,–
CC(C(=O)NC1CC(C)(C)NC(C)(C)C1)c1ccc([N+](=O)[O-])cc1 (configuration not stated),–,"inconclusive [inhibitor, single point]"
Cc1nnc(NCc2ccco2)s1,inactive: -26.3%,–
CCn1c(SCC(=O)c2ccc(O)c(O)c2)nnc1-c1ccc(C)cc1,–,"inconclusive [inhibitor, full curve]"
Cc1cc(C(=O)CN2C(=O)NC3(CCCCC3)C2=O)c(C)n1-c1ccc2c(c1)OCO2,–,"inconclusive [inhibitor, single point]"

SMILES,"activity change, negative = inhibition",Potency
Cc1ccc(S(=O)(=O)N2C[C@H]3C(=O)C[C@@H](c4ccccc4)N(S(=O)(=O)c4ccc(C)cc4)[C@H]3C[C@H]2c2ccc(Cl)cc2)cc1,inactive: 13.8%,–
O=C(O)c1ccccc1-c1ccccc1C(=O)Nc1ccc(-c2nc3cc(Cl)ccc3o2)cc1,–,"inconclusive [inhibitor, partial curve]"
O=C(NCCCN1CCOCC1)c1cccc(S(=O)(=O)N2CCc3ccccc3C2)c1,–,"inconclusive [inhibitor, single point]"
C#CCOCCOCCOCCNc1nc(N2CCN(C(=O)[C@H](CCCN=C(N)N)n3cc(C(N)[C@@H](C)CC)nn3)CC2)nc(N2CCN(C(=O)[C@H](CCCCN)n3cc([C@@H](N)[C@H](C)CC)nn3)CC2)n1 (some centres not stated),–,"inconclusive [inhibitor, single point]"
O=C(NCc1ccncc1)c1csc([C@@H]2C[C@H](O)[C@@H](CO)O2)n1,–,"inconclusive [inhibitor, partial curve, poor fit]"
CC(NC(=O)CN1CCN(C(=O)c2cccs2)CC1)c1ccc(F)cc1F (configuration not stated),inconclusive: -6.74% [inhibitor],–
Cc1ccc(S(=O)(=O)NC(=O)c2ccc(-c3ccc(C)c4ccccc34)o2)cc1,–,"inconclusive [inhibitor, partial curve, poor fit]"
CC(=O)c1cc2c(cc1N/C(=N/S(=O)(=O)c1ccccc1)c1ccc(Cl)cc1)OCO2,–,"inconclusive [inhibitor, full curve, poor fit]"
O=C(Nc1ccon1)c1ccc(S(=O)(=O)N2CCOCC2)cc1,–,"inconclusive [inhibitor, single point]"
CC(C)c1ccc(/C=N/NC(=O)CN(c2cccc(Cl)c2Cl)S(C)(=O)=O)cc1,–,"inconclusive [inhibitor, full curve]"
O=C(CCCN1C(=O)/C(=C/c2ccccc2)SC1=S)Nc1ccc(C(=O)O)c(O)c1,–,"inconclusive [inhibitor, partial curve, poor fit]"
CNC1=CC(=O)CC(c2ccccc2)C1 (configuration not stated),–,"inconclusive [inhibitor, partial curve]"
CC1=C(C(=O)OC(C)C)C(c2ccc(C)o2)C(C(=O)OC(C)C)=C(C)N1,–,"inconclusive [inhibitor, full curve, poor fit]"
CCC(C)CN1C(=O)CSCC1(C)C(=O)NCc1ccccc1 (configuration not stated),inactive: -4.93%,–
O=C(CSc1nc2ccccc2c(=O)[nH]1)c1cccs1,inactive: -9.2%,–
Cc1ccc2c(c1)N(CC(=O)NCCCc1ccccc1)C(=O)c1cccnc1O2,–,"inconclusive [inhibitor, single point]"
CC(C)(C)NC(=O)COC(=O)c1c2c(nc3ccccc13)CCC2,–,"inconclusive [inhibitor, partial curve]"
O=C(CN1CCN(CCO)CC1)Nc1ccccc1,inconclusive: -19.8% [inhibitor],–
C[C@@]12C(=O)N(c3cccc(F)c3)C(=O)N1[C@H](c1ccc(F)cc1)[C@@H]1C(=O)N(C3CCCCC3)C(=O)[C@@H]12,–,"inconclusive [inhibitor, single point]"
C=CCNC(=O)/C(=C/c1ccc(Br)cc1)NC(=O)c1ccccc1OC,–,"inconclusive [inhibitor, single point]"
CC(=O)Nc1ccc(S(=O)(=O)Nc2nc(-c3ccc(C(C)(C)C)cc3)cs2)cc1,–,"inconclusive [inhibitor, partial curve]"

SMILES,"activity change, negative = inhibition",Potency
COc1ccc(/C=C/C(=O)c2cc(F)ccc2OC(=O)c2ccccc2)cc1OC,inactive: -17.9%,–
COc1ccc(C(=O)Nc2ccc(C)c(S(=O)(=O)N3CCCCCC3)c2)cc1,–,"inconclusive [inhibitor, partial curve]"
CCC(C)[C@H](NC(=O)N1CC(=O)Nc2ccccc21)C(=O)N[C@@H](C(=O)O)c1ccccc1 (some centres not stated),–,"inconclusive [inhibitor, single point]"
O=C(c1ccccc1)c1coc2ccc(O)c(Cl)c12,–,"inconclusive [inhibitor, full curve]"
Cc1c(C(=O)N2CCCCC2)c(S(=O)(=O)NCc2ccc(F)cc2)c(C)n1C,–,"inconclusive [inhibitor, full curve, poor fit]"
Clc1ccc(-c2nc3ccc(Cl)cn3c2Cc2cccc(Cl)c2)cc1,–,"inconclusive [inhibitor, full curve, poor fit]"
COc1ccccc1NC(=O)CSc1nnc(CNC(=O)c2cccs2)o1,–,"inconclusive [inhibitor, single point]"
COc1cccc(C(=O)NCCSc2ccc(C)cc2)c1,inactive: -10.3%,–
Cc1ccc(C)c(C(=O)COC(=O)CN2C(=O)C3C4CCC(C4)C3C2=O)c1 (configuration not stated),–,"inconclusive [inhibitor, single point]"
NS(=O)(=O)c1ccc(NC(=S)NCCc2ccccc2)cc1,–,"inconclusive [inhibitor, single point]"
NNC(=S)Nc1cccc(-c2n[nH]c(=S)o2)c1,–,"inconclusive [inhibitor, partial curve]"
CCn1c(=N)n(CC(=O)c2cccc(OC)c2)c2ccccc21,–,"inconclusive [inhibitor, single point]"
C=CCc1c(C)c(C#N)c2nc3ccccc3n2c1N1CCCCC1,–,"inconclusive [inhibitor, single point]"
C[C@H](CO)N1C[C@H](C)[C@@H](CN(C)C(=O)Nc2ccc(C(F)(F)F)cc2)Oc2c(NS(=O)(=O)c3cn(C)cn3)cccc2C1=O,–,"inconclusive [inhibitor, partial curve]"
N#CCCN(C(=O)COC(=O)CCc1nc2ccccc2c(=O)[nH]1)c1ccccc1F,inactive: 5.87%,–
CC(C)(C)OC(=O)N1CCC(NC(=O)c2[nH]cnc2C(=O)Nc2ccccc2)CC1,inconclusive: -4.53% [inhibitor],–
O=c1ccc(N=Nc2ccccc2)ccc1O,inactive: -23.6%,–
COc1ccccc1Cc1c(C(C)(C)C)nc2c3ccccc3ccn12,inactive: -13.3%,–
c1ccc(C2[C@H]3CN(CC4CCCCC4)[C@H](c4ccccc4)C34CC2(c2cccnc2)C4)cc1 (some centres not stated),–,"inconclusive [inhibitor, partial curve, poor fit]"
Cc1ccc(S(=O)(=O)N(C)c2nc3ccccc3n3c(C(C)C)nnc23)cc1,–,"inconclusive [inhibitor, single point]"
